Inconclusive results, whose numbers are uncertain, are shown with a selection of clear calls. For some assays here: Where the call is inconclusive, the potency comes from a doubtful curve fit. Active and inactive are the calls of the source. Unless noted, calls come from the whole dose curve; as a rule, active = well fitted curve in the direction sought with a large enough effect in the repeat runs; inconclusive = weak or mixed curves; inactive = no such curve, though single readings can be large; an effect the other way counts as inactive or inconclusive.
Assays:
[1] = qHTS assay for small molecule agonists of the p53 signaling pathway (AID 651631; calls by dose curve; note: potency is the fitted concentration of half-maximal effect; nearly all actives have a fitted effect of over 15% in size); settings: HCT-116 p53RE-bla reporter, beta-lactamase FRET ratio, 16 h; activation: at 73.3 µM (top of the series) unless noted
Procedure, shortened: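 HCT-116 p53RE-bla reporter line, 16 h compound treatment at 37 °C, then fluorescence after 2 h with B/G FRET substrate.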

[2] = qHTS assay for small molecules that induce genotoxicity in human embryonic kidney cells expressing luciferase-tagged ATAD5 (AID 651632); note: potency is the fitted concentration of half-maximal effect; nearly all actives have a fitted effect of over 15% in size
Procedure, shortened: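 Cells were seeded at 2,000 per well, dosed with compound, and incubated 16 hr at 37C in 5% CO2. Luciferase activity was then quantified after a 30 min room-temperature incubation with Amplite.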

[3] = qHTS assay for small molecules that induce genotoxicity in human embryonic kidney cells expressing luciferase-tagged ATAD5 - cell viability (AID 651634; calls by dose curve; note: potency is the fitted concentration of half-maximal effect; nearly all actives have a fitted effect of over 25% in size)
Procedure, shortened: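 Cells (HEK293T, luciferase-tagged ATAD5) are seeded at 2,000 per well, dosed with compound or DMSO vehicle, and incubated 15.5 hr at 37C and 5% CO2. CellTiter-Fluor is added for 30 min before fluorescence is measured.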

[4] = qHTS assay for small molecule disruptors of the mitochondrial membrane potential (AID 720635); settings: HepG2 mitochondrial membrane potential, Mito-MPS dye ratio; ratio activity, negative = MMP loss: at 83.2 µM (top of the series) unless noted; note: potency is the fitted concentration of half-maximal effect
Procedure, shortened: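 HepG2 cells exposed to compound 1 hr at 37C, then Mito-MPS dye 30 min. Ratio read of aggregate (540/590 nm) versus monomer (490/535 nm) fluorescence.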

[5] = target: Glucocorticoid receptor (Homo sapiens) (UniProt P04150); assay: qHTS assay to identify small molecule agonists of the glucocorticoid receptor (GR) signaling pathway (AID 720691; active = well fitted activation curve with a large enough effect in the signal ratio in the repeat runs, not every such curve was filed as active; inconclusive = weak or mixed curves, or effect the other way; inactive = no such curve, though single readings can be large or run the other way; the % refers to the signal ratio; note: potency is the fitted concentration of half-maximal effect); settings: GR-bla HeLa, beta-lactamase reporter ratio, 18 h; activation: at 62.4 µM (top of the series) unless noted
UniProt P04150, sequence (P04150 whole entry, looked up): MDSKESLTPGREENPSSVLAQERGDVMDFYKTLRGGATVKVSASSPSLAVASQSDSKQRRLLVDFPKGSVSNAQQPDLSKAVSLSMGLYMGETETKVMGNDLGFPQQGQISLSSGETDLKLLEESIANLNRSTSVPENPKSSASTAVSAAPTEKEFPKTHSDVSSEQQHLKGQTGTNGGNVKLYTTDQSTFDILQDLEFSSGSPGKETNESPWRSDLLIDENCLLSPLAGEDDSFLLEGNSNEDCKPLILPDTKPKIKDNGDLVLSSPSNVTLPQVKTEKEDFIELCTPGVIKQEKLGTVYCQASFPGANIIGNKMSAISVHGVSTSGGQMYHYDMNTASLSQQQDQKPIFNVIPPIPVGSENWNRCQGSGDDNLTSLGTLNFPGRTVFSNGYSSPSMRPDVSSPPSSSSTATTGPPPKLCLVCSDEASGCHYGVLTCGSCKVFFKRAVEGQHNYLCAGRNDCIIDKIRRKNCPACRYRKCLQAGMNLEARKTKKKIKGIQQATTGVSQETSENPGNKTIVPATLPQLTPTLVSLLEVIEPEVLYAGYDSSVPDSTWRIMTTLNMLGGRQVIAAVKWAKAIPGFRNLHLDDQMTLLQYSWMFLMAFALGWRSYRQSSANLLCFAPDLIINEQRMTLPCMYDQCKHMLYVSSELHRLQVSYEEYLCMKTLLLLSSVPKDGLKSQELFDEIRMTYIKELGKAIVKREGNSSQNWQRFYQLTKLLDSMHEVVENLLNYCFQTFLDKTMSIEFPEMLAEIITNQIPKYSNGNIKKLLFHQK
Procedure, shortened: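 Steps: seed GR-bla HeLa cells, incubate 4 h at 37 C/5% CO2; pin-transfer DMSO-dissolved compounds; incubate 18 h at 37 C; add LiveBLAzer B/G FRET substrate; after 2 h at room temperature, measure fluorescence.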

[6] = target: Glucocorticoid receptor (Homo sapiens) (UniProt P04150); assay: qHTS assay to identify small molecule antagonists of the glucocorticoid receptor (GR) signaling pathway (AID 720692; active = well fitted inhibition curve with a large enough effect in the signal ratio in the repeat runs, not every such curve was filed as active; inconclusive = weak or mixed curves, or effect the other way; inactive = no such curve, though single readings can be large or run the other way; the % refers to the signal ratio; note: potency is the fitted concentration of half-maximal effect; for activity change, negative = inhibition: % is set by controls: 0 for no effect and ±100 for the full control effect); settings: GR-bla HeLa, beta-lactamase FRET ratio, dexamethasone-stimulated, 18 h; activity change, negative = inhibition: at 58.5 µM (top of the series) unless noted
Procedure, shortened: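 Antagonism was scored as loss of dexamethasone-driven (5 nM final) reporter signal in HeLa cells bearing a glucocorticoid response element–beta-lactamase construct, after 18 h compound exposure at 37 C and 2 h FRET substrate loading.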

[7] = target: Androgen receptor (Homo sapiens) (UniProt P10275); assay: qHTS assay to identify small molecule antagonists of the androgen receptor (AR) signaling pathway (AID 743035; active = well fitted inhibition curve with a large enough effect in the signal ratio in the repeat runs, not every such curve was filed as active; inconclusive = weak or mixed curves, or effect the other way; inactive = no such curve, though single readings can be large or run the other way; the % refers to the signal ratio; note: potency is the fitted concentration of half-maximal effect); settings: HEK293 AR-UAS-bla, R1881-stimulated, beta-lactamase FRET, 16 h; activity change, negative = inhibition: at 58.5 µM (top of the series) unless noted
UniProt P10275, sequence (P10275 whole entry, looked up): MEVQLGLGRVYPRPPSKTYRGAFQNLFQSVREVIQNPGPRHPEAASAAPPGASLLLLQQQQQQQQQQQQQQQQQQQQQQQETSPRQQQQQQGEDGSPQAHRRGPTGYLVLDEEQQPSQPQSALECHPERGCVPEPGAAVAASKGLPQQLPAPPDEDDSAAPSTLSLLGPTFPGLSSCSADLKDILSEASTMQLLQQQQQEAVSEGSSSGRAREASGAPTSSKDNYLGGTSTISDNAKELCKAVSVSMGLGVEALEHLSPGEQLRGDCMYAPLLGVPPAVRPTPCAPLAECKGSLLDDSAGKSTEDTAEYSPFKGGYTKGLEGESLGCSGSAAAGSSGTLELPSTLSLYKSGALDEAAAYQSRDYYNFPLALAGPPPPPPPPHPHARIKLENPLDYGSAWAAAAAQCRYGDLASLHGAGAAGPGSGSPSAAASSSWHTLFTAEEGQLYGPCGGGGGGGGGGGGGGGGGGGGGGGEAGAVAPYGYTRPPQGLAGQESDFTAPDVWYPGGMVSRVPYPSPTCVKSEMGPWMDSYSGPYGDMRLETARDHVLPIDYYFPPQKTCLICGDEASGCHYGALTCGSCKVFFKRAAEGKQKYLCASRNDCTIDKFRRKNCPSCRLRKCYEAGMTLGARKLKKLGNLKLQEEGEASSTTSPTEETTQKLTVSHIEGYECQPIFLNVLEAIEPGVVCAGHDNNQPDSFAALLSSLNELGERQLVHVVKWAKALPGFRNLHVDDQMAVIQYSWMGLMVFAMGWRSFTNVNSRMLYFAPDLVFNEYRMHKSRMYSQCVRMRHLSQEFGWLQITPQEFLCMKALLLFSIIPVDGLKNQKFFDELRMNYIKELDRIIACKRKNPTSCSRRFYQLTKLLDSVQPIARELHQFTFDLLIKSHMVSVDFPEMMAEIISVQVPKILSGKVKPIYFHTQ
Procedure, shortened: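 Steps: seed AR-UAS-bla GripTite HEK293 cells, incubate 4 h at 37C; pin in test compound, then add agonist R1881; incubate 16 h at 37C; add LiveBLAzer B/G FRET substrate, 2 h at room temperature; read fluorescence.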

[8] = target: Androgen receptor (Homo sapiens) (UniProt P10275); assay: qHTS assay to identify small molecule agonists of the androgen receptor (AR) signaling pathway (AID 743036; active = well fitted activation curve with a large enough effect in the signal ratio in the repeat runs, with a control signal flat, not every such curve was filed as active; inconclusive = weak or mixed curves, or effect the other way; inactive = no such curve, though single readings can be large or run the other way; the % refers to the signal ratio; note: potency is the fitted concentration of half-maximal effect); settings: HEK293 AR-UAS-bla GripTite, beta-lactamase FRET ratio, 16 h; activation: at 62.4 µM (top of the series) unless noted
Procedure, shortened: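 Reporter line: GeneBLAzer AR-UAS-bla-GripTite (HEK293). Steps: plate cells, 4 h rest, add compounds, 16 h at 37C, add LiveBLAzer B/G substrate, 2 h at RT, read fluorescence.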

[9] = qHTS assay to identify small molecule antagonists of the androgen receptor (AR) signaling pathway using the MDA cell line - cell viability counter screen (AID 743041; note: potency is the fitted concentration of half-maximal effect; nearly all actives have a fitted effect of over 45% in size); settings: MDA-kb2 viability, CellTiter-Fluor, 16 h, cells co-treated with R1881 androgen agonist; viability change, negative = cytotoxic: at 70.3 µM (top of the series)
Procedure, shortened: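 Compound exposure lasted 16 h at 37C in MDA-kb2 AR-luc cells stimulated with R1881. Protease-based CellTiter-Fluor reagent was applied for the final 30 min and fluorescence measured.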

[10] = target: Androgen receptor (Homo sapiens) (UniProt P10275); assay: qHTS assay to identify small molecule antagonists of the androgen receptor (AR) signaling pathway using the MDA cell line (AID 743042; note: potency is the fitted concentration of half-maximal effect; nearly all actives have a fitted effect of over 55% in size)
Procedure, shortened: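 MDA-kb2 breast carcinoma cells carrying MMTV-luciferase (AR/GR responsive) were co-treated with compounds and the agonist R1881 for 16 h at 37C. Inhibition read as ONE-Glo luminescence; CellTiter-Fluor fluorescence measured in parallel for cytotoxicity.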

[11] = qHTS assay to identify small molecule antagonists of the thyroid receptor (TR) signaling pathway - cell viability counter screen (AID 743064); settings: GH3.TRE-Luc viability, CellTiter-Fluor, 24 h; activity change, negative = cytotoxic: at 70.3 µM (top of the series) unless noted; note: potency is the fitted concentration of half-maximal effect; nearly all actives have a fitted effect of over 50% in size
Procedure, shortened: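 Plate GH3.TRE-Luc cells; incubate 4 h at 37 °C; add compound, then T3 to 1 nM final; incubate 23.5 h; add CellTiter-Fluor; incubate 30 min at 37 °C, 5% CO2; read fluorescence.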

[12] = qHTS assay to identify small molecule antagonists of the thyroid receptor (TR) signaling pathway (AID 743065); note: nearly all actives have a fitted effect of over 55% in size; note: potency is the fitted concentration of half-maximal effect; for activity, negative = inhibition: % is set by controls: 0 for no effect and ±100 for the full control effect
Procedure, shortened: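 GH3.TRE-Luc rat pituitary cells (two TREs driving luciferase) were dosed with compound, then stimulated with 1 nM T3 (final) for 23.5 h at 37 C. ONE-Glo luminescence was the read-out, with CellTiter-Fluor fluorescence as the cytotoxicity counter-screen.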

[13] = tested on: thyroid hormone receptor (rat, GH3 cells); assay: qHTS assay to identify small molecule agonists of the thyroid receptor (TR) signaling pathway (AID 743066; calls by dose curve; note: % is set by controls: 0 for no effect and ±100 for the full control effect); settings: GH3.TRE-Luc cells, TR agonist luciferase, 24 h; activation: at 83.9 µM (top of the series) unless noted
[14] = target: Estrogen receptor (Homo sapiens) (UniProt P03372); assay: qHTS assay to identify small molecule antagonists of the estrogen receptor alpha (ER-alpha) signaling pathway (AID 743069; active = well fitted curve in the direction sought with a large enough effect in the signal ratio in the repeat runs, not every such curve was filed as active; inconclusive = weak or mixed curves, or effect the other way; inactive = no such curve, though single readings can be large or run the other way; the % refers to the signal ratio; note: potency is the fitted concentration of half-maximal effect); settings: HEK293 ER-alpha-UAS-bla, beta-lactamase ratio, antagonist mode; activity, negative = inhibition: at 69.4 µM (top of the series) unless noted
UniProt P03372, sequence (P03372 whole entry, looked up): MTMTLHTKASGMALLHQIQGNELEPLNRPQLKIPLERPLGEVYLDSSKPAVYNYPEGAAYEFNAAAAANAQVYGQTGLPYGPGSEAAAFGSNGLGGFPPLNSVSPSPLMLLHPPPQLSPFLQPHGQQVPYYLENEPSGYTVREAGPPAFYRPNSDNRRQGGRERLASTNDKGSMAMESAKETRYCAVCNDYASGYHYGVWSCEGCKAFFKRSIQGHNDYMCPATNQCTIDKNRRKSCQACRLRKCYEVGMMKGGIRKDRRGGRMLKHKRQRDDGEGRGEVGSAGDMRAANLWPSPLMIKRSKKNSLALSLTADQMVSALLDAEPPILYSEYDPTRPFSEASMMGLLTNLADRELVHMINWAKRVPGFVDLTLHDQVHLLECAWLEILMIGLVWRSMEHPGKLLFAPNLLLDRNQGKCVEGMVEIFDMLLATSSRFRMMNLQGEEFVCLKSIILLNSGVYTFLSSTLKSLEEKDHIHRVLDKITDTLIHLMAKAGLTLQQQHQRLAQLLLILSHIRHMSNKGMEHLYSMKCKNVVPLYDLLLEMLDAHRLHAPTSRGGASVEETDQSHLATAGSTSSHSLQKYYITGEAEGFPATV
Procedure, shortened: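 In this cell-based reporter format, GripTite HEK293 cells harbouring ER-alpha-UAS-bla were grown overnight with 2% charcoal-stripped FBS, dosed with DMSO-dissolved compounds, then challenged with 17beta-estradiol. After 18 hr at 37C, beta-lactamase activity was detected by FRET fluorescence.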

[15] = target: Estrogen receptor (Homo sapiens) (UniProt P03372); assay: qHTS assay to identify small molecule agonists of the estrogen receptor alpha (ER-alpha) signaling pathway using the BG1 cell line (AID 743079); settings: BG1Luc4E2 cells, ERE-luciferase agonist, 22 h; activation: at 70.3 µM (top of the series) unless noted; note: potency is the fitted concentration of half-maximal effect; nearly all actives have a fitted effect of over 20% in size
[16] = qHTS assay to identify small molecule antagonists of the estrogen receptor alpha (ER-alpha) signaling pathway using the BG1 cell line (AID 743080; calls by dose curve;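 note: BG1 cells stimulated with 17beta-estradiol alongside compound; potency is the fitted concentration of half-maximal effect; nearly all actives have a fitted effect of over 25% in size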); settings: BG1Luc4E2 ERE-luciferase antagonist mode, luminescence; activity change, negative = inhibition: at 70.3 µM (top of the series) unless noted
Procedure, shortened: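 Endogenous full-length ER-alpha in BG1-Luc-4E2 cells drives a stably integrated 4×ERE luciferase gene; compounds were tested against 17beta-estradiol over 21.5 h, with luminescence and multiplexed viability fluorescence recorded.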

[17] = qHTS assay to identify aromatase inhibitors - cell viability counter screen (AID 743084); settings: MCF-7 aro ERE viability, CellTiter-Fluor, 24 h; activity change, negative = cytotoxicity: at 70.3 µM (top of the series) unless noted;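 note: cells stimulated with testosterone during compound exposure; potency is the fitted concentration of half-maximal effect; nearly all actives have a fitted effect of over 55% in size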
[18] = target: Peroxisome proliferator-activated receptor gamma (Homo sapiens) (UniProt P37231); assay: qHTS assay to identify small molecule agonists of the peroxisome proliferator-activated receptor gamma (PPARg) signaling pathway (AID 743094; active = well fitted activation curve with a large enough effect in the signal ratio in the repeat runs, not every such curve was filed as active; inconclusive = weak or mixed curves, or effect the other way; inactive = no such curve, though single readings can be large or run the other way; the % refers to the signal ratio; note: potency is the fitted concentration of half-maximal effect); settings: HEK293H PPARg-UAS-bla, beta-lactamase FRET ratio, 17 h; activation: at 57 µM (top of the series) unless noted
UniProt P37231, sequence (P37231 whole entry, looked up): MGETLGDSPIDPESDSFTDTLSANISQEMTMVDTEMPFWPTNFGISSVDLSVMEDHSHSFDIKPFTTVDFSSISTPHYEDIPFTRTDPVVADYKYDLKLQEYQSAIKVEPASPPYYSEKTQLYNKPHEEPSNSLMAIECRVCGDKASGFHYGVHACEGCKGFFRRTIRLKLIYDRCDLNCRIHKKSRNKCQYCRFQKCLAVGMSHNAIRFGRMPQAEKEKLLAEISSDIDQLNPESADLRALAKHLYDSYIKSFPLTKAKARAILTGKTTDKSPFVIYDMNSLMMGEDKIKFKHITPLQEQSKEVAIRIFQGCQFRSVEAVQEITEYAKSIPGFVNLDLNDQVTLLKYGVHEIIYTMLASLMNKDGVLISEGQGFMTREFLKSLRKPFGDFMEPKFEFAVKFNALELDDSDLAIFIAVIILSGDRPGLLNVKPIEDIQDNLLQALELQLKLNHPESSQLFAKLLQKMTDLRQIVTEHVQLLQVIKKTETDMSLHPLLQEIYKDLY
Procedure, shortened: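 Cells from the PPARg UAS-bla HEK293H line are plated and incubated 5 h at 37C. Compounds in DMSO are pinned in and left 17 h at 37C. LiveBLAzer B/G substrate is then added for 1 h at room temperature before fluorescence is measured.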

[19] = target: Nuclear receptor subfamily 1 group I member 2 (Homo sapiens) (UniProt O75469); assay: Human pregnane X receptor (PXR) activation by small molecules, qHTS assay (AID 1346985); note: potency is the fitted concentration of half-maximal effect; nearly all actives have a fitted effect of over 40% in size
Procedure, shortened: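 DPX-2 cells (HepG2 co-transfected with a PXR response element and a CYP3A4-promoter luciferase construct) were seeded at 2,000 per well, rested 5 hr at 37C, then exposed to DMSO-dissolved compounds for 24 hr. Activation was read as luciferase luminescence.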

[20] = qHTS assay to identify small molecule antagonists of the androgen receptor (AR) signaling pathway - cell viability counter screen (AID 743033; note: potency is the fitted concentration of half-maximal effect; nearly all actives have a fitted effect of over 45% in size); settings: AR-bla HEK293 viability, CellTiter-Glo luminescence, 16 h; activity change, negative = cytotoxicity: at 58.5 µM (top of the series) unless noted
[21] = target: Nuclear receptor subfamily 1 group I member 2 (Homo sapiens) (UniProt O75469); assay: CYP3A4 induction through human pregnane X receptor (PXR) by small molecules, qHTS assay (AID 1346984); settings: DPX-2 HepG2 PXR, CYP3A4-luciferin luminescence, 24 h; activation: at 46.1 µM (top of the series) unless noted; note: nearly all actives have a fitted effect of over 40% in size; note: potency is the fitted concentration of half-maximal effect; for activation: % is set by controls: 0 for no effect and ±100 for the full control effect
Procedure, shortened: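 Quantitative HTS in DPX-2 cells, i.e. HepG2 transfected with PXR response element and CYP3A4-promoter luciferase. Compounds in DMSO incubated 24hr at 37C; then P450-Glo CYP3A4 substrate, 3uM final, 3hr; One-Glo luminescence.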

[22] = qHTS assay for identifying genotoxic compounds that show differential cytotoxicity against isogenic chicken DT40 cell lines with known DNA damage response pathways - wild type cell line (AID 743012); settings: DT40 wild type chicken cells viability, CellTiter-Glo, 40 h; activity change, negative = cytotoxicity: at 68.4 µM (top of the series) unless noted; note: potency is the fitted concentration of half-maximal effect; nearly all actives have a fitted effect of over 60% in size
Procedure, shortened: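 Cytotoxicity in repair-proficient parental chicken DT40 cells serves as the comparator for Rad54/Ku70- and Rev3-deficient lines. Cells were exposed to compounds for 40 h at 37 C/5% CO2, and ATP-based luminescence (CellTiter-Glo) measured viability.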

[23] = qHTS assay to identify small molecule antagonists of the estrogen receptor alpha (ER-alpha) signaling pathway - cell viability counter screen (AID 743074; calls by dose curve; note: potency is the fitted concentration of half-maximal effect; nearly all actives have a fitted effect of over 45% in size)
[24] = qHTS assay to identify small molecule that activate the aryl hydrocarbon receptor (AhR) signaling pathway - cell viability counter screen (AID 743086); note: potency is the fitted concentration of half-maximal effect; nearly all actives have a fitted effect of over 45% in size
Procedure, shortened: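 HepG2-AhR-luc (HG2L7.5c1) cells, 4000/well, treated 24 h at 37 C with compound; viability measured as CellTiter-Fluor fluorescence after 30 min in the same wells as the luciferase read.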

[25] = qHTS assay for identifying genotoxic compounds that show differential cytotoxicity against isogenic chicken DT40 cell lines with known DNA damage response pathways - Rev3 mutant cell line (AID 743014); settings: chicken DT40 Rev3-/- viability, CellTiter-Glo, 40 h; activity, negative = cytotoxicity: at 68.4 µM (top of the series) unless noted; note: potency is the fitted concentration of half-maximal effect; nearly all actives have a fitted effect of over 55% in size
[26] = qHTS assay for identifying genotoxic compounds that show differential cytotoxicity against isogenic chicken DT40 cell lines with known DNA damage response pathways - Rad54/Ku70 mutant cell line (AID 743015); settings: DT40 Rad54/Ku70 mutant viability, CellTiter-Glo, 40 h; activity change, negative = cytotoxicity: at 66.8 µM (top of the series) unless noted; note: potency is the fitted concentration of half-maximal effect; nearly all actives have a fitted effect of over 60% in size
Aromatase (Homo sapiens) = Aromatase (Homo sapiens) (UniProt P11511); assay: qHTS assay to identify aromatase inhibitors (AID 743083)
UniProt P11511, sequence (P11511 whole entry, looked up): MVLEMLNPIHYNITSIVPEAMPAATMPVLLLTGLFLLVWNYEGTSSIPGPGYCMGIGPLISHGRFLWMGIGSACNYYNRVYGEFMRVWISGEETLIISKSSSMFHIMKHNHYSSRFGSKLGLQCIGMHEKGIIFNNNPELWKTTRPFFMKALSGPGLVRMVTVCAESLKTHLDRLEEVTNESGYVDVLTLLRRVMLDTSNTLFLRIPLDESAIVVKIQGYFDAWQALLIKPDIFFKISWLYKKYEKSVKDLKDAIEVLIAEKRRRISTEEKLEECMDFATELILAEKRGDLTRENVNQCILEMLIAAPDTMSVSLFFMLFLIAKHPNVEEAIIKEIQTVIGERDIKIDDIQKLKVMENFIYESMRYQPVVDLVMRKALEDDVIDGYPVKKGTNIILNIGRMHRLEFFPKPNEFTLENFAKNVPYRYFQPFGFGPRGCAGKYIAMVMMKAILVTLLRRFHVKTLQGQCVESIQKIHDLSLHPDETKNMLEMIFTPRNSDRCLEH
Tags give direction and shape of the fitted curve or compound fluorescence and quenching.

C#C[C@]1(O)CC[C@H]2[C@@H]3CCC4=C/C(=N/O)CC[C@@H]4[C@H]3CC[C@@]21CC
inconclusive: Potency [1] 18.8 µM [activator, partial curve, poor fit] | Potency [2] 8.41 µM [activator, partial curve, poor fit] | Potency [3] 29.8 µM [falling, partial curve] | Potency [5] 0.952 µM [inhibitor, partial curve, poor fit] | Potency [6] 1.9 µM [rising, partial curve] | Potency [9] 33.5 µM [cytotoxic, partial curve, poor fit] | Potency [10] 53.1 µM [inhibitor, partial curve, poor fit] | activation [13] -7.92% [phenotype inactive] | Potency [14] 26.8 µM [rising, single point] | Potency [16] 15 µM [falling, partial curve] | Potency [17] 33.5 µM [cytotoxic] | Potency [18] 26.8 µM [fluorescent]
active: Potency [4] 10.6 µM | Potency [7] 26.8 µM | Potency [8] 4.25 µM | Potency [11] 29.8 µM | Potency [12] 11.9 µM | Potency [15] 0.0422 µM | Potency [19] 4.47 µM

NS(=O)(=O)c1cc(Cl)c(Cl)c(S(N)(=O)=O)c1
inactive: Potency [6] | Potency [12] | Potency [21]
inconclusive: Potency [20] 0.0013 µM [cytotoxic, full curve, poor fit] | Potency [18] 3.62 µM [activator, full curve, poor fit]

NC(=O)Oc1ccc(Cc2ccccc2)cc1
inactive: Potency [5]
inconclusive: Potency [9] 29.8 µM [rising, partial curve, poor fit] | Potency [16] 26.6 µM [rising, partial curve, poor fit] | Potency [21] 28.2 µM [activator, single point]
active: Potency [4] 21.1 µM | Potency [15] 21.1 µM

CO[C@H]1C=CO[C@@]2(C)Oc3c(C)c(O)c4c(O)c(c5c(nc6cc(C)ccn65)c4c3C2=O)NC(=O)/C(C)=C\C=C[C@H](C)[C@H](O)[C@@H](C)[C@@H](O)[C@@H](C)[C@H](OC(C)=O)[C@@H]1C
active: Potency [22] 26.6 µM
inconclusive: Potency [3] 33.5 µM [falling, partial curve, poor fit] | Potency [4] 6.68 µM [activator, full curve] | Potency [20] 0.0048 µM [cytotoxic, full curve, poor fit] | Potency [23] 26.8 µM [rising, partial curve, poor fit] | Potency [24] 29.8 µM | Potency [21] 10 µM [activator, partial curve, poor fit]

CC(C)c1nc(N(C)S(C)(=O)=O)nc(-c2ccc(F)cc2)c1/C=C/C(O)CC(O)CC(=O)O (configuration not stated)
inconclusive: Potency [4] 9.44 µM [activator, partial curve] | Potency [22] 7.5 µM [cytotoxic, full curve] | Potency [25] 0.335 µM [cytotoxic, full curve] | Potency [26] 11.9 µM [cytotoxic, full curve] | Potency [16] 33.5 µM | Potency (Aromatase (Homo sapiens)) 23.7 µM [inhibitor, partial curve] | Potency [21] 20 µM [activator, partial curve, poor fit]
inactive: Potency [12] | Potency [13]
active: Potency [15] 26.6 µM
